Results published in PubChem BioAssay (NCI).
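In this assay, cells in 96-well plates receive the compound at five concentrations for 48 hours. Endpoints are linearly interpolated between the surrounding concentrations. GI50 is the concentration that inhibits growth by half. TGI: concentration producing complete growth inhibition.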

Test system: NCI-H322M lung
Test: NCI anticancer screen, dose series, 48 h

SMILES	TGI	GI50
ClC1c2ccccc2C2(c3ccccc3)OOC1(c1ccccc1)O2 (configuration not stated)	17.8 µM	–
COC12C=CC(CC1)C(C)(C)C2OS(C)(=O)=O (configuration not stated)	> 100 µM	–
COc1ccc(N=Nc2c(-c3ccccc3)nn(C(=O)CC(=O)Nc3ccccc3Cl)c2-c2ccccc2)cc1	> 100 µM	–
O=C(CCN1CCCC1)Nc1ccc2c(NCCc3ccccc3)c3ccccc3nc2c1	2.02 µM	0.447 µM
CCOC(=O)c1ccccc1SC(C[N+](=O)[O-])c1ccccc1 (configuration not stated)	30.4 µM	15.9 µM
Cc1ccc(NC(=O)/C(=N/NC(=O)C[N+](C)(C)C)c2nc3ccccc3[nH]c2=O)cc1	> 100 µM	–
Cc1ccc2c(=O)cc(Cc3csc4ccccc34)[nH]c2n1	> 100 µM	–
O=C(Oc1ccccc1Cl)c1ccccc1Nc1cccc(C(F)(F)F)c1	> 100 µM	37.8 µM
CNC(=O)c1cc(Oc2ccc3nc(N[C@@H]4CCCC[C@H]4O)sc3c2)ccn1	> 100 µM	> 100 µM
CC(=O)O[C@H]1C[C@](C)(O)[C@@]23CC([C@@H](OC(=O)C(C)(C)O)[C@@H](OC(C)=O)C2(COC(=O)c2ccccc2)[C@H]1OC(C)=O)C(C)(C)O3 (some centres not stated)	> 100 µM	–
Cn1c(COC(=O)NC2CCCCC2)c(COC(=O)NC2CCCCC2)c2ccc3cc(C=O)ccc3c21	> 100 µM	–
CC[C@H]1CN(C)[C@H]2Cc3c([nH]c4ccccc34)C(=O)C[C@H]1C2C(=O)OC (some centres not stated)	> 100 µM	–
CCCC(=O)c1ccc(=O)n(C)c1	> 100 µM	–
O=C1NC(=O)[C@@H](c2c[nH]c3ccccc23)[C@@H]1c1c[nH]c2ccccc12	> 25 µM	> 25 µM
C1=CN2C[n+]3ccc4ccccc4c3N=C2c2ccccc21	32.4 µM	–
CCOC(=O)C1=C(c2ccccc2)C12N(Cc1ccccc1)C(=O)C2(c1ccccc1)c1ccccc1 (configuration not stated)	> 100 µM	–
CCC(=O)N1C(=O)C(CC)(CC)C(=O)N1C(=O)CC	> 100 µM	–
CN(C)c1ccc(Nc2c3ccccc3nc3cc(NC(=O)CCN4CCCC4)ccc23)cc1	1.96 µM	0.451 µM
CCOC1NC(/N=C/c2ccc(OC)cc2)=C(C#N)C1C#N (configuration not stated)	> 100 µM	–
NCCS(=O)(=O)O	> 100 µM	–
COC1C(CO)OC(n2c3c(Cl)cccc3c3c4c(c5c6cccc(Cl)c6[nH]c5c32)C(=O)NC4=O)C(O)C1O (configuration not stated)	25.3 µM	–
CN(C)C(=S)/N=c1\ss/c(=N\C(=S)N(C)C)n1Cc1ccco1	> 100 µM	–
OC1(c2ccc(Cl)cc2)c2c(c3ccccc3c3ccccc23)C2=NCCN21 (configuration not stated)	61.3 µM	–
CO[C@]12CC(=O)C3(C(C[C@H]4CC5CC[C@H]6C[C@@H](OC(C)=O)CC[C@]6(OC(C)=O)C5C[C@@]43C)C1)C1C[C@H]3[C@@H]4CC[C@H]5C[C@@H](OC(C)=O)CC[C@]5(OC(C)=O)[C@H]4CC[C@]3(C)C12 (some centres not stated)	> 100 µM	–

SMILES	TGI	GI50
N#Cc1ccc(C2Oc3ccc(Cl)cc3C=C2[N+](=O)[O-])cc1 (configuration not stated)	3.37 µM	–
NC1=Nc2ccccc2Sc2nc3ccccc3n21	> 100 µM	–
COc1ccc(C(=O)/C=C/c2cc(-c3ccc4c(c3)OCO4)n[nH]2)cc1OC	7.3 µM	2.48 µM
N#CCc1nc2cc(C(F)(F)F)ccc2s1	> 100 µM	–
COc1ccc(Cn2c3ccc([N+](=O)[O-])cc3c(=O)n2Cc2ccccn2)cc1	> 100 µM	–
O=C(c1ccco1)c1nc2cc(C(F)(F)F)ccc2[n+]([O-])c1C(F)(F)F	> 100 µM	43.7 µM
CCCCCCCCCCCCCCCC(=O)OCC1OC(OC)C(NC(=O)N(CCCl)N=O)C(O)C1O (configuration not stated)	58 µM	–
Clc1ccc2nc(Cl)c3ccccc3c2c1	43 µM	5.54 µM
CC(=O)c1[nH]c(Nc2ccc(C)cc2)c(C(=S)Nc2ccccc2)c1N	40.7 µM	–
N#Cc1c(N2CCCC2)nsc1Nc1ccc(F)cc1	> 100 µM	–
CC(=O)Nc1ccc(-c2csc(Nc3cccc(-c4csc(-c5ccccc5)n4)c3)n2)cc1	> 50 µM	> 50 µM
O=C(Nc1ccc(Sc2ccc(N=Nc3c(O)c(S(=O)(=O)O)cc4cc(S(=O)(=O)O)ccc34)cc2)cc1)c1ccc(N=Nc2c(O)c(S(=O)(=O)O)cc3cc(S(=O)(=O)O)ccc23)cc1	> 100 µM	–
O=C1CCCC(O)=C1SC1=C(O)CCCC1=O	> 100 µM	–
CCOC(=O)c1ccc(N(C=O)CCC(=O)CCl)cc1	20 µM	6.37 µM
O=c1c2c(=NCCN3CCCC3)cc3c(=O)n(CCCN4CCOCC4)c(=O)c4ccc(c(O)n1CCCN1CCOCC1)c2c4-3	0.683 µM	0.0737 µM
O=C1c2cc3c(cc2CC1Cc1ccc2c(c1)CCC2)CCC3 (configuration not stated)	> 100 µM	–
COc1cc(/C=C/C(=N\NC(=S)NN)c2sc(NNC(C)=O)nc2C)ccc1O	> 100 µM	–
CC1CCOc2ccc(cc2)C=Nc2ccc(cc2)-c2ccc(cc2)N=Cc2ccc(cc2)OCC1 (configuration not stated)	> 100 µM	–
CN(C)CCNC(=O)c1c2ccccc2cc2ccccc12	> 100 µM	–
COc1cc(-c2nc(-c3ccc(-c4nc5ccc(F)cc5[nH]4)cc3)no2)cc(OC)c1OC	52.4 µM	13 µM
Nc1nccc2c1ccn2-c1cccc(NC(=O)c2ccc(N3CCOCC3)c(C(F)(F)F)c2)c1	> 50 µM	1.8 µM
CC1=CC(=O)/C(=C/n2c(=S)[nH]c3cc(C)ccc32)C(=O)O1	> 100 µM	–
O=C1CCC2(c3ccc(Cl)cc3)Nc3ncncc3N12 (configuration not stated)	> 10 µM	–
COc1ccccc1NC(=O)C1=C(C)NC(C)=C(C(=O)Nc2ccccc2OC)C1c1cccc2ccccc12	> 100 µM	–
